The text below walks through data of publication PMC4336329 (PLoS ONE, 2015).

Among all 310,000 compounds or so, about 2,200 (0.71%) showed an effect of 50% or more. The effect is printed as a negative number. Some of the results follow.

The target in the test is human ether-à-go-go-related gene (hERG) potassium channel (human, UniProt Q12809). The test can be described thus: primary screen, population patch clamp on CHO cells stably expressing hERG.
human ether-à-go-go-related gene (hERG) potassium channel, sequence (Q12809 whole entry, looked up): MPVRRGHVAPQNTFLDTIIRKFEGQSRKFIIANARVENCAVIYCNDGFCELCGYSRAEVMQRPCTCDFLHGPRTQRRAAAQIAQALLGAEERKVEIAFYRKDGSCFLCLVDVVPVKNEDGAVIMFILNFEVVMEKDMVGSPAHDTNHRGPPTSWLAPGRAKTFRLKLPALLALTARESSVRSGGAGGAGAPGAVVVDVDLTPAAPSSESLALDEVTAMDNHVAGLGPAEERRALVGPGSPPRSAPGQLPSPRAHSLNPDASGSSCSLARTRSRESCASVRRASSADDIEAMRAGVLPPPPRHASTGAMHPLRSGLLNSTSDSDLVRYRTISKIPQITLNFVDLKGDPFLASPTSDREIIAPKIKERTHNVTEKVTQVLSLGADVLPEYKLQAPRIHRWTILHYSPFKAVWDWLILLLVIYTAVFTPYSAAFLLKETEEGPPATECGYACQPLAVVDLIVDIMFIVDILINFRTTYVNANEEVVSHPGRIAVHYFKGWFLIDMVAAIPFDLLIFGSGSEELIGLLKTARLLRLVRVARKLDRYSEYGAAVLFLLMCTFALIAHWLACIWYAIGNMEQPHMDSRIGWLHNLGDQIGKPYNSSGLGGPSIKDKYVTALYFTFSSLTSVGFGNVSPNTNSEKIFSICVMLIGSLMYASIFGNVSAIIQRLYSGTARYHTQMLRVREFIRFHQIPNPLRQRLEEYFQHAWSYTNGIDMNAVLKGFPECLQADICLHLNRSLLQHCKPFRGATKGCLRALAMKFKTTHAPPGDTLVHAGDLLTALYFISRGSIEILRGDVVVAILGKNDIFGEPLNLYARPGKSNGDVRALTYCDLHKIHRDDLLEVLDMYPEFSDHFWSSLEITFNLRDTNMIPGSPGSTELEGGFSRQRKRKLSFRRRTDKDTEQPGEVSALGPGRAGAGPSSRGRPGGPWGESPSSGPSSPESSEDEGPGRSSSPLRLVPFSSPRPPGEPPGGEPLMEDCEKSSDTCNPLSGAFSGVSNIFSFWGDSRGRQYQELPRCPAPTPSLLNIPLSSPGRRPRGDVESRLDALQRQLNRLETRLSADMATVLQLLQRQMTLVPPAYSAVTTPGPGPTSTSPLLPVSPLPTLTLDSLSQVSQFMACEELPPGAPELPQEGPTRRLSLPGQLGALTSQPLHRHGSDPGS
On to `Cl.NC(=O)CSc1nnc([C@@H](N)Cc2c[nH]c3ccccc23)o1`, for which the “hERG current change (%, negative = inhibition) at 1uM” value worked out at 1.81%. With `O=C1N(O)C2(C=CCCC2)/C(=N\O)C12CCCCC2` (centres unmarked) the figure was 6.27%; with `Nc1nc(-c2cccnc2)nc(N2CCCCC2)n1`, -6.93%; with `C=CCOC(=O)COc1ccc2c(C)c(C)c(=O)oc2c1C`, 5.32%. Take `Cc1nn(C(C)C(=O)N2CCCCC2)c(=O)c2c1sc1ccccc12` (centres unmarked): the “hERG current change (%, negative = inhibition) at 1uM” value is 23.8%. Turning to `O=C(CCN1C(=O)c2cccc3cccc(c23)C1=O)N1CCN(c2ccccc2F)CC1`, the “hERG current change (%, negative = inhibition) at 1uM” value is listed as 5.92%. With `CC(=O)c1ccc(OCC(=O)Nc2ccccc2N2CCCC2)cc1` the figure was 3.63%; with `Cn1c(/C(C#N)=C2/CCCCCN2)nc2ccccc21`, 5.61%.

Regarding `O=C(NCCc1ccccc1)C1CCCN(c2ncnc3c2nc2n3CCCCC2)C1` (centres unmarked), the “hERG current change (%, negative = inhibition) at 1uM” value was -23.8%. For `O=C(Nc1ccc2ccccc2c1)c1cn(-c2ccccc2)nc1-c1cccs1` the value was -1.2%; for `O=C(CN(c1cccc(C(F)(F)F)c1)S(=O)(=O)c1ccccc1)N1CCOCC1`, -10.2%; for `CC(=O)c1cc(C#N)c(SCC(=O)C(C)(C)C)nc1C`, -13.5%. For `[N-]=[N+]=NCCN1CCC(O)CCC1=O` (centres unmarked) the value was 6.59%; for `O=C(NCc1csc2ccccc12)Nc1cc(Cl)cc(Cl)c1`, 9.05%.

`CCc1c(C)nc2c(-c3ccccc3OC)c(C)[nH]n2c1=O`: the “hERG current change (%, negative = inhibition) at 1uM” value turned out to be 16.6%. With `O=C1[C@@H]2[C@H](C(=O)N1Cc1ccco1)[C@H]1C=C[C@@H]2C1` the figure was 9.41%; with `CC(C)CN(/C=N/c1sc2c(c1C#N)CCCCC2)CC(C)C`, 16.3%; with `CN1C/C(=N\S(=O)(=O)c2ccccc2)N(C)C1=O`, 13%. For `NC(=O)COC(=O)c1ccccc1OCc1ccccc1Cl` the value was 8.38%. With `O=C(CCS(=O)(=O)c1ccc(Br)s1)NCc1ccccc1` the figure was 16.7%; with `O=C(NCCCN1CCOCC1)NC12CC3CC(CC(C3)C1)C2`, 7.46%.

`COc1ccc([C@@H]2CC=C(C(=O)O)[C@H](c3ccccc3F)N2S(=O)(=O)c2ccc(C)cc2)cc1OC`: the “hERG current change (%, negative = inhibition) at 1uM” value stood at 16%.

On to `CCOc1ccc(OCCC(=O)OCC(=O)NC2CCCCC2)cc1`, for which the “hERG current change (%, negative = inhibition) at 1uM” value is reported as 13.2%. For `O=C(NC1CC1)C1=C[C@H](c2csc3ccccc23)C[C@H](OCc2ccc(CO)cc2)O1` the value was 8.98%; for `O=C(COc1ccc(Br)cc1)c1ccc2c(c1)CCCC2`, 0.109%; for `COCC(C)n1c(C)cc(C(=O)CSc2cc(C)c3ccccc3n2)c1C` (centres unmarked), 12.7%.

`COC(=O)C1=C(C)OC(N)=C(C#N)C1c1cccnc1` (centres unmarked): the “hERG current change (%, negative = inhibition) at 1uM” value is reported as 11.5%. For `Cn1cc(S(=O)(=O)N2CCc3ccccc32)cc1C(=O)Nc1ccc(Cl)cc1` the value was 10.6%; for `Cc1cccc(C(=O)OCC(=O)N2CCCCCC2)c1O`, 9.23%; for `O=S(=O)(c1ccc2c(c1)CCN2)N1CCCC1`, 4.9%. For `O=C(Nc1ccc(N2CCN(c3ccc(C(F)(F)F)cn3)CC2)nc1)c1cccs1` the value was 13.4%; for `COc1ccc(OCC(O)CN(CCO)CC(O)Cn2ccc3ccccc32)cc1` (centres unmarked), 9.66%; for `CC1(C)CC2CC(C)(CN2C(=O)c2cc(-c3ccc(F)cc3)on2)C1` (centres unmarked), 11.5%.

Turning to `CN(C)S(=O)(=O)c1ccc(C(=O)Nc2ccc(S(=O)(=O)NC3=NCCCCC3)cc2)cc1`, the “hERG current change (%, negative = inhibition) at 1uM” value is -2.57%. For `O=C(COC(=O)c1n[nH]c(=O)c2ccccc12)c1ccc(Cl)cc1` the value was 14.7%. With `COC(=O)c1ccc(CNC(=O)COC(=O)c2ccccc2-c2ccccc2)cc1` the figure was -6.61%; with `CN(C)S(=O)(=O)c1cccc(-c2nnc(-c3ccccc3)o2)c1`, 9.85%; with `O=C(c1cc2cc(Br)cc(Br)c2oc1=O)N1CCOCC1`, 1.79%. For `C=C(C)CSc1nc2nc(C)cc(C)n2n1` the value was 5.03%; for `Cc1ccc(NS(=O)(=O)c2cccc(C(=O)N3CCN(c4ncccn4)CC3)c2)cc1`, 9.78%; for `CCCCNC(=O)c1onc(CSc2ccccc2F)c1C(=O)O`, 14.7%. For the compound `CN(C)CCCNC1CS(=O)(=O)CC1O.Cl` (centres unmarked), the “hERG current change (%, negative = inhibition) at 1uM” value worked out at 7.14%. With `O=C(O)c1cc2c(s1)-c1ccccc1CC2` the figure was -9.58%. With `C=CCNC(=O)CSc1nc2ccccc2c(=O)n1CCc1ccc(OC)c(OC)c1` the figure was 0.494%; with `Cc1cc(CNC(=O)c2cccc([N+](=O)[O-])c2)c2ccccc2n1`, 5.45%.

In the case of `COc1cccc(NC(=O)CN2CCN(C(=O)c3ccco3)CC2)c1`, the “hERG current change (%, negative = inhibition) at 1uM” value was determined as 11.1%. Take `O=C(CN1CCOCC1)NNc1nc(-c2ccccc2)c2cc(Br)ccc2n1`: the “hERG current change (%, negative = inhibition) at 1uM” value is 7.75%. For `Cc1ccc(S(=O)(=O)Nc2ccc3nc(N)sc3c2)cc1` the value was -2.39%; for `Cc1c(NC(=S)N/C(=N/S(=O)(=O)c2ccccc2)c2ccccc2)c(=O)n(-c2ccccc2)n1C`, 13.3%. Regarding `CCOc1ccc(-c2nnc(-c3cccs3)o2)cc1`, the “hERG current change (%, negative = inhibition) at 1uM” value was 12.9%.

Consider `Cn1c(Sc2ccc(C(=O)O)cc2[N+](=O)[O-])nnc1-c1ccccc1`, for which the “hERG current change (%, negative = inhibition) at 1uM” value is -14.3%.

As to `O=C(c1cccc(S(=O)(=O)N2CCOCC2)c1)N1CCOCC1`, the “hERG current change (%, negative = inhibition) at 1uM” value was 21.7%. Turning to `O=c1[nH]c(O)c(C=NC2CCCCC2)c(=O)[nH]1`, the “hERG current change (%, negative = inhibition) at 1uM” value is 12.3%. For `COc1ccc(NS(=O)(=O)c2cccc(C(=O)Nc3cccc(C(=O)O)c3)c2)cc1` the value was 15.8%; for `CCn1cc(C(=O)N2CCOCC2)c2ccccc21`, 7.17%.

`COc1ccc(CNCc2c(C(=O)N(C)C)nc3ccc(Cl)cn23)c(OC)c1`: the “hERG current change (%, negative = inhibition) at 1uM” value is listed as 4.86%. With `Cc1cccc(C)c1NC1=NC(C)(C)N=C(N)N1` the figure was 14.9%; with `Cc1ccc(C2(O)CCN3CCCCC32)cc1` (centres unmarked), 14.3%; with `CC(C)(C)NC(=O)CN(C(=O)Cn1nnc(-c2ccccc2F)n1)c1cccc2c1CCCC2`, 6.4%.

Turning to `CC(=O)c1cccc(N2C(=NC(=O)C(C)C)SC3CS(=O)(=O)CC32)c1` (centres unmarked), the “hERG current change (%, negative = inhibition) at 1uM” value is on record as 13.5%.

In the case of `COC(=O)c1ccc(N2CCN(C(C)=O)CC2)c(NC(=O)COc2ccccc2C)c1`, the “hERG current change (%, negative = inhibition) at 1uM” value was 8.44%. With `CC1CCCN(c2nc3c(c(=O)n(C)c(=O)n3C)n2CCSc2nc3ccccc3o2)C1` (centres unmarked) the figure was 10.5%; with `COc1ccc(NC(=S)Nc2cccc(C)n2)cc1`, 2.71%. For `COc1ccccc1NC(=O)c1ccccc1-c1nc(-c2ccccc2OC)no1` the value was 0.603%; for `COc1ccc(Cl)cc1NC(=S)NNC(=O)CC(C)C`, 4.19%. With `O=c1oc2ccccc2c2c1ncn2C1CCCCC1` the figure was -24.8%; with `COc1ccc(CN(C(C)=O)c2ccccc2C(=O)O)cc1`, 4.21%. `CC(C)(C)c1ccc(Oc2ncccc2NC(=O)c2cccs2)cc1`: the “hERG current change (%, negative = inhibition) at 1uM” value was found to be 11.1%. With `CCC(c1nnnn1Cc1ccco1)N1CCN(C(=O)c2ccco2)CC1.Cl` (centres unmarked) the figure was -0.369%; with `CN(c1ccccc1C(=O)O)S(C)(=O)=O`, 17.2%; with `CC1=NNC(=O)C1CCC(=O)N/N=C/c1ccc(Cl)cc1` (centres unmarked), 21%. For `Cc1c(Cl)cccc1NC(=O)Nc1cnccn1` the value was 15.3%; for `O=C(Cc1ccsc1)NNC(=O)c1ccccc1Cl`, 7.87%. For `O=C(NCCCc1ccccc1)Nc1cccc(Cl)c1` the value was 7.97%; for `Clc1cc(Cl)cc(CSc2nnc(-c3sccc3-n3cccc3)o2)c1`, 4.3%. Turning to `CC(NC(=O)CN(C)CC(=O)Nc1ccc(F)c(F)c1F)c1ccccc1` (centres unmarked), the “hERG current change (%, negative = inhibition) at 1uM” value came to 3.74%. With `O=C1CC(/C=C/c2ccccn2)=Nc2ccccc2N1` the figure was 2.14%. With `CC1=C(C(N)=O)C(c2ccccc2[N+](=O)[O-])n2ncnc2N1` (centres unmarked) the figure was 3%. Consider `CC(=O)c1ccc(NC(=O)c2ccccc2-c2ccccc2C(=O)O)cc1`, for which the “hERG current change (%, negative = inhibition) at 1uM” value is 17.5%.

On to `CN(C)CCCN(Cc1ccccc1)C(=S)Nc1cccc(C(F)(F)F)c1`, for which the “hERG current change (%, negative = inhibition) at 1uM” value was -7.56%. For `CC(C)CCOc1ccc(C(=O)O)cc1` the value was 16%; for `CCOC(CNC(=O)CN1C(=O)COc2ccc(S(=O)(=O)N3CC(C)CC(C)C3)cc21)OCC` (centres unmarked), 12%; for `CCOC(=O)CC1C(=O)NCCN1S(=O)(=O)c1cc(Cl)c(Cl)cc1Cl` (centres unmarked), -4.46%. With `COC(=O)C(C)N(C(=O)c1ccc(C(=O)c2ccccc2)cc1)c1c(C)cccc1C` (centres unmarked) the figure was -15.7%. With `O=C(C1CC1)N1CCN(c2nc3ccccc3s2)CC1` the figure was 6.31%; with `N#Cc1ccccc1Sc1ccccc1C(=O)OCC(=O)NC1CCS(=O)(=O)C1` (centres unmarked), 19.5%.

Regarding `CC(C)c1ccc(OCC(=O)NNC(=O)c2cnccn2)cc1`, the “hERG current change (%, negative = inhibition) at 1uM” value was determined as 13%. For `CCN1CCN(S(=O)(=O)c2ccc(-c3cc(C)no3)s2)CC1` the value was 11.2%; for `Cc1ccc(NC(=O)COC(=O)Cn2nc(C)c([N+](=O)[O-])c2C)c([N+](=O)[O-])c1`, 14.6%; for `OCC(Cc1ccccc1)Nc1c2ccccc2nc2ccccc12` (centres unmarked), -38.8%. On to `Cl.NCC12CC3CC(CC(O)(C3)C1)C2`, for which the “hERG current change (%, negative = inhibition) at 1uM” value is 10.1%.

For `CCCC(=O)Nc1cc2c3c(c1)CC(=O)N3CCC2`, the “hERG current change (%, negative = inhibition) at 1uM” value is reported as -2.72%.
